From PubChem BioAssay AID1468 (National Center for Advancing Translational Sciences (NCATS), 2008)
“And” between values parts separate entries of the source, which are not always exact repeats. Equal entries are not always repeated. Screen size: about 280,000 compounds; about 1,100 (0.39%) were called active. Inconclusive means that the source gave no clear call. Such entries were picked first, then a sample of the others. Calls come from the whole dose curve; as a rule, active = well fitted inhibition curve with a large enough effect; inconclusive = small, poorly fitted or top-dose-only effect, or effect the other way; inactive = flat fitted curve, though single readings scatter. A potency beside an inconclusive call is a rough fit, not a confirmed value.

Biological target: Microtubule-associated protein tau (Homo sapiens) (UniProt P10636)
Sequence of UniProt P10636 (P10636 whole entry, looked up): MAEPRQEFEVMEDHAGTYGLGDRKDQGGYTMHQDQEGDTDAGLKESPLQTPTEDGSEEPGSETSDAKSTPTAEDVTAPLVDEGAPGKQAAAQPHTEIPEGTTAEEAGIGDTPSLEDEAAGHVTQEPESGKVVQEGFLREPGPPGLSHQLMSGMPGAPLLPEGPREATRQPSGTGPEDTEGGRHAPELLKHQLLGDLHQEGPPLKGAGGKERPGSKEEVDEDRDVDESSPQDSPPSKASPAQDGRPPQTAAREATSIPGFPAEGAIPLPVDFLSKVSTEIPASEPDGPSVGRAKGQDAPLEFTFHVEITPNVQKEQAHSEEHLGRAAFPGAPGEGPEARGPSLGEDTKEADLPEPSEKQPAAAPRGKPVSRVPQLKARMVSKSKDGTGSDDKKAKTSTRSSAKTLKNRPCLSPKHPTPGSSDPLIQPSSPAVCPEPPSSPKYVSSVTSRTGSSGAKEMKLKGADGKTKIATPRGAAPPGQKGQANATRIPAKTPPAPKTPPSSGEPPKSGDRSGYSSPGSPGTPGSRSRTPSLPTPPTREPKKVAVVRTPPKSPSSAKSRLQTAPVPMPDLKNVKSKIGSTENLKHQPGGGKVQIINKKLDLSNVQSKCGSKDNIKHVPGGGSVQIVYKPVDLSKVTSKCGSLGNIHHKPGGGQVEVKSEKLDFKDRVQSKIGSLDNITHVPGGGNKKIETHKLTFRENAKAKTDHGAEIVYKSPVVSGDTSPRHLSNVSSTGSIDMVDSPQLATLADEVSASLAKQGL
Experiment: qHTS for Inhibitors of Tau Fibril Formation, Fluorescence Polarization; note: nearly all actives have a fitted effect of over 55% in size
Settings: K18 P301L tau heparin fibrillization, Alexa594 FP, 6 h; series mostly up to 57.7 µM; activity, negative = inhibition: at the top concentration
In short: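 Human K18 P301L fragment (15 uM unlabeled plus 0.24 uM Alexa 594-labeled) in 100 mM sodium acetate pH 7 with compound, aggregation induced by 20 uM heparin for 6 hr at 37 C. ThT (30 uM) added for 1 hr, then Alexa 594 FP read.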
% is set by controls: 0 for no effect and ±100 for the full control effect; potency is the fitted concentration of half-maximal effect; tags give direction and shape of the fitted curve.

SMILES | Potency | activity, negative = inhibition
CN1CSC2=C(C#N)C(c3cccc(OCc4ccccc4)c3)CC(=O)N2C1 (configuration not stated) | inconclusive: 39.8 µM [inhibitor, single point] | 
S=C(Nc1ccccc1)Nc1nccs1 | inactive | 
CCOC(=O)c1ccc(NC(=O)c2csc3c2CCCC3)cc1 | inconclusive: 1.26 µM [inhibitor, partial curve] | 
O=C(Nc1cccc2cccnc12)c1cccc2ccccc12 | inconclusive: 20 µM [inhibitor, single point] and inconclusive: 17.8 µM [inhibitor, single point] | 
Cc1nn(-c2ccccc2)c(Cl)c1/C=C1\SC(=S)N(C)C1=O | inconclusive: 22.4 µM [inhibitor, single point] | 
CCOC(=O)C1=C(C)N(c2ccc(OCC)cc2)C(=O)/C1=C\c1ccco1 | inconclusive: 15.8 µM [inhibitor, partial curve, poor fit] | 
CCO/C(C)=C1/SC(=S)NC1=O |  | inactive: -7.8%
Cc1sc2ncnc(Sc3ccccc3C(=O)Nc3ccc(C#N)cc3)c2c1C | inconclusive: 35.5 µM [inhibitor, partial curve] | 
O=Cc1s/c(=N\S(=O)(=O)c2ccccc2)n(CCCCl)c1Cl | inconclusive: 17.8 µM [inhibitor, partial curve] | 
O=C(CCC(=O)N1CC2CCCN2c2ccccc21)NCc1ccccc1 (configuration not stated) |  | inactive: 2.58%
O=C(NC(=S)Nc1ccc(N2CCOCC2)cc1)c1cccc(Cl)c1 |  | inactive: 9.29%
COc1ccc(NC(=O)CN2C(=O)COc3ccc(S(=O)(=O)Nc4ccccc4)cc32)cc1OC | inconclusive: 31.6 µM [activator, single point] | 
O=C(COCc1cc(-c2cccs2)on1)Nc1cccc(Cl)c1Cl |  | inactive: -4.85%
Cc1c(Cl)cccc1Nc1nn2c(=O)c3ccc(C(=O)NCCc4ccccc4)cc3nc2s1 | inconclusive: 1.58 µM [inhibitor, single point] | 
CCN(CC)C(=O)Cn1cc(SCC(=O)Nc2ccccc2F)c2ccccc21 |  | inactive: -8.82%
COc1ccc(NC(=O)c2nnn(Cc3nc(-c4cc(OC)c(OC)c(OC)c4)oc3C)c2C)cc1 | inconclusive: 11.2 µM [activator, single point] | 
NC(CSS(=O)(=O)O)=NCCC12CC3CC(CC(O)(C3)C1)C2 | inconclusive: 2.51 µM [inhibitor, partial curve] | 
COc1ccc(NC(=O)Nc2ccccc2)cc1S(=O)(=O)N1CCCCC1 | inconclusive: 39.8 µM [inhibitor, single point] | 
COc1ccc(CCNC(=O)c2cc(Nc3cc(C)cc(C)c3)nc3ccccc23)cc1OC |  | inactive: 3.88%
O=C1/C(=C\c2ccco2)SC(=S)N1C1CCS(=O)(=O)C1 (configuration not stated) | inconclusive: 28.2 µM [inhibitor, single point] | 
O=C(COC(=O)C1CCN(/C=C/C(=O)C(F)(F)F)CC1)Nc1ccccc1 |  | inactive: -2.2%
CC(OC(=O)c1nsc(Cl)c1Cl)C(=O)NCc1ccc2c(c1)OCO2 (configuration not stated) |  | inactive: -0.849%
O=S1(=O)C[C@@H]2N=C(N/N=C/c3ccccc3)S[C@@H]2C1 |  | inactive: -1.92%

SMILES | Potency | activity, negative = inhibition
COC(=O)c1sccc1NC(=S)NCc1ccc(Cl)cc1 | inconclusive: 14.1 µM [inhibitor, partial curve] | 
CS(=O)(=O)c1ccc2nc(NC(=O)Nc3cccc(Cl)c3)sc2c1 | inconclusive: 7.08 µM [inhibitor, partial curve] | 
O=C(Oc1cc(OC(=O)c2ccccc2)c2c(c1)OC(c1ccc(OC(=O)c3ccccc3)c(OC(=O)c3ccccc3)c1)[C@@H](OC(=O)c1ccccc1)C2)c1ccccc1 (some centres not stated) | inconclusive: 17.8 µM [inhibitor, partial curve] | 
COC(=O)c1ccccc1NC(=O)CSc1nc(-c2ccccc2)cc(C(F)(F)F)n1 |  | inactive: -22.1%
O=C(NCc1ccccc1)c1ccc2c(c1)C(=O)N(CC1CCCO1)C2=O (configuration not stated) |  | inactive: 5.86%
CC(=O)c1ccc(NC(=O)c2ccc3c(c2)N(Cc2cccc(Cl)c2)C(=O)c2ccccc2S3(=O)=O)cc1 | active: 15.8 µM | 
Cc1cccc(-c2noc(CNC(=O)Nc3ccc(F)cc3)n2)c1 | inconclusive: 39.8 µM [inhibitor, single point] | 
COc1cc(/C=N/Nc2nc3c(c(=O)n(C)c(=O)n3C)n2Cc2ccccc2)ccc1OC(=O)c1ccco1 | inconclusive: 2.82 µM [activator, full curve, poor fit] | 
OC(c1cccs1)(c1cccs1)C1C[N+]2(CF)CCC1CC2 (configuration not stated) |  | inactive: 1.39%
CCOC(=O)C1=C(C)N(c2ccc(C)cc2)C(=O)/C1=C\c1cccs1 |  | inactive: -17.7%
CN1CCN(CCc2cn3ncc(C#N)c3nc2-c2ccc(F)cc2)CC1 |  | inactive: 2.04%
COc1ccc(S(=O)(=O)NCCc2nnc3ccc(SCC(=O)Nc4ccc(C(F)(F)F)cc4)nn23)cc1 |  | inactive: 1.11%
COc1ccc(-c2nc3ccccc3c(=O)n2CCOc2ccc(C)cc2C)cc1 | inconclusive: 14.1 µM [inhibitor, partial curve] | 
COc1ccc(C2=CC3=C(Br)C(=O)C(C)(O)C(=O)C3=CO2)cc1 (configuration not stated) | inconclusive: 31.6 µM [inhibitor, single point] and inconclusive: 25.1 µM [inhibitor, partial curve, poor fit] | 
Cc1cccc(CNc2nc(-c3cccc(NS(C)(=O)=O)c3)nc3ccccc23)c1 | inconclusive: 28.2 µM [inhibitor, partial curve] | 
COC(=O)c1ccc2c(=O)n(CCCCCC(=O)NCc3ccccc3)c(=O)[nH]c2c1 | inconclusive: 25.1 µM [inhibitor, single point] and inconclusive: 20 µM [inhibitor, single point] | 
O=C(C1CCCN(S(=O)(=O)c2cccc3nonc23)C1)N1CCN(c2cccc(Cl)c2)CC1 (configuration not stated) | inconclusive: 8.91 µM [activator, partial curve] | 
CC(C)(C)NC(=O)NCCc1ccccc1 | inconclusive: 7.94 µM [activator, partial curve, poor fit] | 
O=S(=O)(NNc1nccc(C(F)(F)F)n1)c1cccc(Cl)c1Cl | inconclusive: 39.8 µM [inhibitor, single point] | 
COc1ccccc1/C=C/C(=O)Nc1cccc(C(C)=O)c1 | inconclusive: 20 µM [inhibitor, single point] | 
CC(=O)NC(Cc1c[nH]c2ccccc12)C(=O)Nc1ccc2c(c1)OCO2 (configuration not stated) |  | inactive: 2.21%
CC(C)(C)NC(=O)NC(=O)COC(=O)CCCc1c[nH]c2ccccc12 | inconclusive: 14.1 µM [activator, single point] | 
Cc1cc(C)c2c(=O)c3c(oc2c1)C(=O)N(Cc1ccc(F)cc1)C3c1cccc(O)c1 (configuration not stated) | inconclusive: 39.8 µM [inhibitor, single point] | 

SMILES | Potency | activity, negative = inhibition
CC(=O)Nc1ccc(Nc2c([N+](=O)[O-])cc(S(C)(=O)=O)cc2[N+](=O)[O-])cc1 | inconclusive: 2.51 µM [inhibitor, single point] | 
CCN1CC2=C(OC(N)=C(C#N)C2c2ccccc2)/C(=C\c2ccccc2)C1 (configuration not stated) |  | inactive: -8.43%
CSc1ncccc1C(=O)OCC(=O)Nc1ccc(S(=O)(=O)N2CCCC2)cc1 | inconclusive: 6.31 µM [inhibitor, full curve, poor fit] | 
O=C(Nc1ccc(Cl)cc1C(F)(F)F)c1ccccc1 |  | inactive: -8.43%
O=C(CCS(=O)(=O)c1cccs1)Nc1ccc(C(=O)Nc2cccc(Cl)c2)cc1 | inconclusive: 25.1 µM [inhibitor, partial curve] | 
COc1cc(NC(=O)c2ccc([N+](=O)[O-])cc2)c(OC)cc1NC(=O)CC(C)C |  | inactive: 11.4%
Cc1ccc(-c2cc(C(=O)NCc3cnn(C)c3)c3cc(Br)ccc3n2)cc1 | inconclusive: 15.8 µM [inhibitor, partial curve] | 
COc1ccc(C2C(=O)c3ccccc3C2=O)cc1 | inconclusive: 25.1 µM [inhibitor, single point] | 
Cc1ccc(-n2ncc3c(N4CCN(CCO)CC4)ncnc32)cc1Cl | inconclusive: 0.224 µM [inhibitor, full curve, poor fit] | 
CCOC(=O)c1c(C)oc2cc(Br)c(OC(C)C(=O)OCC)cc12 (configuration not stated) | inconclusive: 4.47 µM [inhibitor, single point] | 
CCC(=O)C1=C(c2cccc([N+](=O)[O-])c2)N(C(=O)CC)n2c(nnc2-c2ccccc2)S1 |  | inactive: -2.2%
Nc1ccc(S(=O)(=O)Nc2nccc(/C=C/c3ccccc3F)n2)cc1 | inconclusive: 39.8 µM [inhibitor, single point] | 
Cc1ccccc1CSc1nnc(C)c(=O)n1N | inconclusive: 31.6 µM [inhibitor, single point] | 
CS(=O)(=O)Nc1cccc(-c2nc(Nc3ccccc3)c3ccccc3n2)c1 | inconclusive: 39.8 µM [inhibitor, single point] | 
COc1ccc(NC(=O)/C=N/O)cc1 |  | inactive: 3.55%
CC(C)Nc1nc(N)c(C(=O)C23CC4CC(CC(C4)C2)C3)s1 | inconclusive: 25.1 µM [activator, partial curve] | 
Cc1cc(Br)ccc1NC(=O)c1cn(C2CCCC2)c(=O)c2c1c1ccccc1n2C |  | inactive: 2.75%
Nc1c(Cl)ncnc1N/N=C/c1cccnc1 | inconclusive: 0.178 µM [activator, single point] | 
Cc1ccc(C)c(Nc2nn3c(=O)c4ccc(C(=O)NCCc5ccccc5)cc4nc3s2)c1 | inconclusive: 12.6 µM [activator, single point] | 
CCN(CC)C(=S)SCC(=O)Nc1ccc(F)cc1 |  | inactive: -7.36%
COc1ccc(C(=O)Nc2nc3c(s2)CCc2cc(OC)ccc2-3)cc1 | inconclusive: 39.8 µM [inhibitor, single point] | 
